Results from PubChem BioAssay AID924 (National Center for Advancing Translational Sciences (NCATS), 2007).
The campaign covered roughly 130,000 compounds. About 1,200 (0.92%) were called active. This list was built around the results that the source calls inconclusive (neither active nor inactive); the mix of calls is not that of the screen. Calls follow the shape of the dose curve; as a rule, active = well fitted cell-killing curve with a large enough effect; inconclusive = small, poorly fitted or top-dose-only effect; inactive = no such curve, though single readings can be large or run the other way. Potencies of inconclusive entries are doubtful fits and often do not repeat.

Test: qHTS Screen for Compounds that Selectively Target Cancer Cells with p53 Mutations: Cytotoxicity of p53ts Cells at the Permissive Temperature; also: nearly all actives have a fitted effect of over 55% in size;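 as to activity change, negative = cytotoxicity: 0% = DMSO and -100% = full killing by reference compound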
Details: H1299-p53A138V at 32C, ATP luminescence viability, 24 h; activity change, negative = cytotoxicity: at 46.1 µM (top of the series)
Method in brief: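 H1299-p53 A138V cells (temperature-sensitive p53) exposed 24 h to up to 46 uM compound at 32C, where p53 is wild-type in conformation. Viability read as ATP luminescence and normalised to DMSO and 100 uM tamoxifen. AC50 fitted with the Hill equation.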
Potency is read from the fitted curve at half-maximal effect; tags tell the direction and shape of the fitted curve.

Compound | Potency | activity change, negative = cytotoxicity
O=C(NC1CC1)c1cc2c(s1)-c1ccccc1OC2 | inconclusive: 10 µM [cytotoxic, partial curve] | –
Cn1ccnc1SCC(=O)c1ccc(Br)cc1 | inconclusive: 0.199 µM [cytotoxic, full curve, poor fit] | –
COc1ccc(NC(=O)Cn2c(SCc3ccc(F)cc3)nc3cccnc32)cc1OC | inconclusive: 14.1 µM [cytotoxic, partial curve] | –
CCc1cccc(NC(=O)Cn2c(=O)n(CC(=O)NCCc3ccccc3)c(=O)c3ccccc32)c1 | active: 10 µM | –
COc1cccc(-c2cc(C(=O)Nc3cccc(O)c3)no2)c1 | active: 2.51 µM | –
COc1cccc(-c2cn3nc(C)c(C)nc3n2)c1 | inconclusive: 15.8 µM [cytotoxic, partial curve] | –
O=C(Nc1nc2ccccc2s1)c1ccc(S(=O)(=O)N2CCCC2)cc1 | – | inactive: -0.6%
COc1ccccc1N1CCN(c2ccc(-c3ccccc3)nn2)CC1 | active: 3.16 µM | –
C[C@H](N)C1CCC(C(=O)Nc2ccncc2)CC1 (some centres not stated) | – | inactive: 31.2%
CC(=O)c1ccc(NC(=O)c2ccc(-c3ccc(Cl)cc3)o2)cc1 | inconclusive: 22.4 µM [cytotoxic, single point] | –
N#CNC(N)=Nc1ccc(Cl)cc1 | – | inactive: -1.39% [at 9.22 µM]
CN(c1ccc(O)cc1)c1nc(-c2ccccc2)cs1 | inconclusive: 12.6 µM [cytotoxic, single point] | –
O=S(=O)(c1ccccc1)N1CCC2(CCN(Cc3ccncc3)CC2)CC1 | inconclusive: 12.6 µM [cytotoxic, single point] | –
Cc1ccc2nc(-c3ccccc3F)c(Nc3ccc(Cl)cc3)n2c1 | inconclusive: 31.6 µM [cytotoxic, single point] | –
COc1ccc(-c2nc(CSCC(=O)N3CCN(c4cccc(C)c4C)CC3)c(C)o2)cc1OC | – | inactive: 24.4%
CCc1c2c(nc3ccc(OC(=O)N4CCC(N5CCCCC5)CC4)cc13)-c1cc3c(c(=O)n1C2)COC(=O)[C@]3(O)CC | – | inactive: -24.7%
COc1cccc(C(=O)Nc2ccc3nc(SCC(=O)N4CCOCC4)sc3c2)c1 | inconclusive: 15.8 µM [cytotoxic, single point] | –
Nc1cccc(-c2nc3ccccc3[nH]2)c1 | inconclusive: 12.6 µM [cytotoxic, single point] | –
Cc1ccccc1CS(=O)(=O)c1nnc([C@H](CC(C)C)NC(=O)OC(C)(C)C)o1 | inconclusive: 31.6 µM [cytotoxic, single point] | –
CCn1c(SCC(=O)Nc2cccc(F)c2)nnc1-c1cc2cc(Br)ccc2o1 | inconclusive: 25.1 µM [cytotoxic, single point] | –
CC(C)c1ccc(/C=C2\C=C(c3ccc4ccccc4c3)OC2=O)cc1 | – | inactive: -4.58% [at 9.22 µM]
Cc1ccc(S(=O)(=O)NC2=NCCCCC2)cc1 | inconclusive: 35.5 µM [cytotoxic, single point] | –
CCCCC(=O)Oc1ccc2oc(-c3ccc(OC)cc3)cc(=O)c2c1 | inconclusive: 12.6 µM [cytotoxic, partial curve] | –
CCCCCCCCCCCCCCCCCC(=O)O[C@H](CC(=O)O)C[N+](C)(C)C | inconclusive: 20 µM [cytotoxic, single point] | –

Compound | Potency | activity change, negative = cytotoxicity
CCc1cc2c(=O)c(-c3ccc4c(c3)OCCO4)coc2cc1OC(=O)c1ccco1 | active: 5.01 µM | –
Cc1cc(N2CCOCC2)c2c(N)c(Br)cc(C)c2n1 | – | inactive: 6.66%
CSc1nc2c(c(=O)[nH]1)C(c1cccc(F)c1F)CC(=O)N2 (configuration not stated) | inconclusive: 5.62 µM [cytotoxic, single point] | –
O=C(COc1ccccc1Cl)Nc1ccc(Cl)cn1 | active: 12.6 µM | –
Brc1ccc(-c2nnc(-c3ccc4c(c3)OCO4)o2)o1 | inconclusive: 12.6 µM [cytotoxic, partial curve] | –
O=C(Nc1ccc(F)c(F)c1)c1cc(S(=O)(=O)NC2CCCCCC2)ccc1F | – | inactive: -12.6%
COc1ccc(-c2cc(C(F)(F)F)nc(S(C)(=O)=O)n2)cc1 | inconclusive: 31.6 µM [cytotoxic, single point] | –
Cc1ccc(NS(=O)(=O)c2ccc3[nH]c4c(c3c2)CCCCCC4)cc1 | – | inactive: -3%
O=C(O)CCCc1ccc2ccccc2c1 | – | inactive: -4.89% [at 9.22 µM]
c1ccc(-c2nc3nonc3nc2-c2ccccc2)cc1 | inconclusive: 20 µM [cytotoxic, single point] | –
CC(C)Cn1c(=O)c2ccccc2n2c(CCC(=O)NCc3ccc(Cl)cc3)nnc12 | – | inactive: 5.94%
CCN(CCCNC(=O)c1cc2cc3ccc(OC)cc3nc2s1)c1cccc(C)c1 | inconclusive: 31.6 µM [cytotoxic, single point] | –
COc1cccc(NC(CNS(=O)(=O)c2ccc(Cl)cc2)c2ccccc2)c1 (configuration not stated) | inconclusive: 20 µM [cytotoxic, single point] | –
COc1ccc(-c2cc(C(=O)OCC(=O)N3CCCC3)c3ccccc3n2)cc1 | active: 12.6 µM | –
COC(=O)c1cc(=O)n(Cc2ccco2)c(=Nc2ccc(F)c(Cl)c2)s1 | inconclusive: 31.6 µM [cytotoxic, single point] | –
COc1ccc(Nc2c3c(nc4ccc(NC(=O)/C=C/c5cccc(OC)c5OC)cc24)CCCC3)cc1OC | active: 10 µM | –
Nc1cc(Cl)c([N+](=O)[O-])cc1O | – | inactive: -1.14% [at 1.84 µM]
CCCN1CCN(c2cc3c(cc2F)c(=O)c(S(=O)(=O)c2ccc(Cl)cc2)cn3C)CC1 | – | inactive: -2.83%
O=C1CCNc2cc3ccccc3cc21 | inconclusive: 31.6 µM [cytotoxic, single point] | –
CCCCN1C(=O)C(O)(CC(=O)c2ccc(CC)cc2)c2cc(Br)ccc21 (configuration not stated) | inconclusive: 31.6 µM [cytotoxic, single point] | –
Cc1cc(NC(=O)c2ccc3c(c2)OCCO3)no1 | active: 1.58 µM | –
Cc1ccc2c(c1)C(c1ccccc1)N(C(=O)COc1ccc(Cl)cc1Cl)CC(=O)N2 (configuration not stated) | – | inactive: 14.3%
COc1ccc(C(=O)Oc2c(Sc3ccccc3)c(C)nn2-c2ccccc2)c(OC)c1 | inconclusive: 12.6 µM [cytotoxic, single point] | –
